Experimental data published in US20110021424A1 (published 2011).
Substitutions are numbered along the chain they refer to.

T1: Murine PDGF-Rβ-Fc (R&D Systems, #1042-PR/CF) (murine, UniProt P05622 32-530, limits assumed)
T1 construct: Bought; also called mouse PDGF-Rβ; mPDGF-Rβ; not shown: Fc part, bought, not described
T1 sequence (looked up): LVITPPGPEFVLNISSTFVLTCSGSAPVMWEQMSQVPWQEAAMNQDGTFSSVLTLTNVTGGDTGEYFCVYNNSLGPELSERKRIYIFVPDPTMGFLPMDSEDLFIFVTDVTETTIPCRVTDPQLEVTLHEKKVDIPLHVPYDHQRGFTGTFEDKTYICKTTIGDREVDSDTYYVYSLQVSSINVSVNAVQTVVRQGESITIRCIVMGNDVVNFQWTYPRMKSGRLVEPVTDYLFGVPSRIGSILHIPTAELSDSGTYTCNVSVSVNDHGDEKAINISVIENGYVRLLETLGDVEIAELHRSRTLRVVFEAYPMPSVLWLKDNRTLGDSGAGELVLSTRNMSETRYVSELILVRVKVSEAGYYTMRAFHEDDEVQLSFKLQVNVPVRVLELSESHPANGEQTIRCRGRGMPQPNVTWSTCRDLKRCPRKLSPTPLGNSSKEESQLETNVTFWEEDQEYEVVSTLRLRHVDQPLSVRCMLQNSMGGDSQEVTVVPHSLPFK

B1: His6-Z02465-Cys-NEM (designed binder)
chain: MGSSHHHHHHLQVDNKFNKELIEAAAEIDALPNLNRRQWNAFIKSLVDDPSQSANLLAEAKKLNDAQAPKVDC
modifications: C-terminal cysteine blocked with N-ethylmaleimide (NEM)
B2: His6-Z02483-Cys-NEM (designed binder)
chain: B1 chain with I22V, E23K
modifications: C-terminal cysteine blocked with N-ethylmaleimide (NEM)
B3: His6-Z02833 (designed binder)
chain: GSSHHHHHHLQVDAKFAKELVKAAAEIDALPNLTRRQWNAFIKKLVDDPSQSSELLSEAKKLNDSQAPKVD
notes: Mutated from Z02483
B4: His6-Z02831 (designed binder)
chain: B3 chain with K44S
notes: Mutated from Z02483
B5: His6-Z02832 (designed binder)
chain: B3 chain with T34N
notes: Mutated from Z02483
B6: His6-Z02834 (designed binder)
chain: B3 chain with D47K
notes: Mutated from Z02483
B7: Z02465-Cys-NEM (designed binder)
chain: GSSLQVDNKFNKELIEAAAEIDALPNLNRRQWNAFIKSLVDDPSQSANLLAEAKKLNDAQAPKVDC
modifications: C-terminal cysteine blocked with N-ethylmaleimide (NEM)
notes: 58-mer 418 inferred
B8: Z03358-Cys-NEM (designed binder)
chain: AEAKYAKELIEAAAEIDALPNLTRRQWNAFIKKLVDDPSQSSELLSEAKKLNDSQAPSC
modifications: C-terminal cysteine blocked with N-ethylmaleimide (NEM)
notes: Mutated from Z02465
B9: SEQ ID NO 359 (designed binder)
chain: VDNKFNKERAEAAQEIDQLPNLNRGQWNAFIASLVDDPSQSANLLAEAKKLNDAQAPK
B10: SEQ ID NO 363 (designed binder)
chain: B9 chain with A10R, Q14K, Q18S, G25T, A32R, V35A
B11: SEQ ID NO 368 (designed binder)
chain: VDNKFNKEIKFAAGEIDNLPNLNRKQWNAFIGSLRDDPSQSANLLAEAKKLNDAQAPK
B12: SEQ ID NO 361 (designed binder)
chain: B9 chain with R9L, A10S, E11D, Q18S, G25S, A32K, V35I
B13: SEQ ID NO 362 (designed binder)
chain: B9 chain with A10R, Q14A, Q18N, G25S, A32Q

Columns and labels:
[1] = molecular target: T2, Human PDGF-sRα (R&D Systems, #322-PR/CF) (human, UniProt P16234 24-524, limits assumed); assay: Biacore, receptor on chip
T2 construct: Bought; also called human PDGF-Rα; PDGF-Rα

[2] = molecular target: T1, Murine PDGF-Rβ-Fc (R&D Systems, …); assay: Biacore, receptor on chip, Langmuir 1:1 model
[3] = molecular target: T3, extracellular domain of recombinant human PDGF-Rβ with a C-terminal Fc fusion and His6-tag (R&D Systems, … (human, UniProt P09619 34-531)); assay: Biacore, receptor on chip, Langmuir 1:1 model
T3 construct: Bought; also called hPDGF-Rβ; human PDGF-Rβ-Fc; not shown: Fc part of IgG

[4] = molecular target: T1, Murine PDGF-Rβ-Fc (R&D Systems, …); assay: Biacore, receptor on chip
[5] = molecular target: T1, Murine PDGF-Rβ-Fc (R&D Systems, …); assay: Biacore, receptor on chip, Langmuir 1:1 model, 4 nM and 20 nM injections
[6] = molecular target: T3, extracellular domain of recombinant …; assay: as above
[7] = molecular target: T4, human IgG1 Fc, polyclonal (Jackson Immuno Research, #009-000-008) (human, UniProt P01857-1 108-330 = IgG part); assay: ELISA
T4 construct: domain: Fc; also called Fc from human IgG; IgG-Fc

Binder | binding result [4] | binding result [7] | further results
B1 |  |  | binding result [1]: no binding (tested: 100 nM); Kd [2]: 7 nM; Kd [3]: 0.5 nM
B2 |  |  | binding result [1]: no binding (tested: 100 nM); Kd [2]: 6 nM; Kd [3]: 0.4 nM
B3 | binds |  | 
B4 | binds |  | 
B5 | binds |  | 
B6 | binds |  | 
B7 |  |  | Kd [5]: 7 nM
B8 |  |  | Kd [5]: 7 nM; Kd [6]: 0.44 nM
B9 |  | no binding | 
B10 |  | no binding | 
B11 |  | no binding | 
B12 |  | no binding | 
B13 |  | no binding | 
